According to PubChem BioAssay AID485281 (National Center for Advancing Translational Sciences (NCATS), 2010):
Several values for one entry are separate records, joined by “and”; a condition that tells them apart may be missing. Identical values can stand only once. About 260 (0.074%) of roughly 350,000 compounds were called active. This list was built around the results that the source calls inconclusive (neither active nor inactive); the mix of calls is not that of the screen. Calls follow the shape of the dose curve; as a rule, active = well fitted inhibition curve with a large enough effect; inconclusive = small, poorly fitted or top-dose-only effect; inactive = no such curve, though single readings can be large or run the other way. Potencies beside an inconclusive call are fits to weak or partial responses and may not hold up.

What follows are compounds tested against Ferritin light chain (Equus caballus) (UniProt P02791) (assay: qHTS Assay for Identification of Novel General Anesthetics). Details: apoferritin/1-aminoanthracene competitive binding, fluorescence; activity change, negative = displacement: at 77.5 µM (top of the series).
Chain of UniProt P02791 (P02791 whole entry, looked up): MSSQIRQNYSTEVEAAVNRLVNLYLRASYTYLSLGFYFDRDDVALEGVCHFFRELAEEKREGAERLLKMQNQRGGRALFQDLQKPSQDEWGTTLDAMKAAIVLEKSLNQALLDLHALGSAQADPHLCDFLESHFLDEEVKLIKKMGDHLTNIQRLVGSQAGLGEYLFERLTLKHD
Method in brief: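 Probe: 1-aminoanthracene (50% saturated, PBS). Protein: horse-spleen apoferritin, 10 uM. Incubation: 10 min, room temperature. Detection: 380 nm excitation, 535 nm emission. Analysis: normalized response, four-parameter Hill.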
% is scaled to controls: 0 for no effect and ±100 for the full control effect; potency is read from the fitted curve at half-maximal effect; tags tell the direction and shape of the fitted curve.
Also: nearly all actives have a fitted effect of over 20% in size.

Activity change, negative = displacement, inactive:
O=C(Nc1ccnn1C1CCN(Cc2ccc(OC(F)F)cc2)CC1)C1CCCC1 -20.9%, CCc1ccc(N2C(=O)c3ccc4c5c(ccc(c35)C2=O)CC4)cc1 -8.51%, Cc1cc(=O)[nH]c(=S)n1-c1ccccc1 4.25%, CCCc1cc(=O)c2ccc(OCC(C)=O)cc2o1 -2.52%, S=c1[nH]nc(COc2cccc3ccccc23)n1Cc1ccccc1 4.4%, CC(=O)Nc1ccc(N=Nc2c(C)[nH]n(C(N)=S)c2=O)cc1 -12.2%, COc1ccc(-c2nc(C#N)c(NCCCn3ccnc3)o2)cc1OC -3.31%, Cc1ccc(CN2C(=O)c3ccccc3S(=O)(=O)c3ccc(C(=O)OCC4CCCO4)cc32)cc1 (stereo not drawn) -6.65%, CC(NCC(O)c1ccc([N+](=O)[O-])cc1)C12CC3CC(CC(C3)C1)C2 (stereo not drawn) 1.64%, Cc1cc(C)c2[nH]c(=S)cc(C)c2c1 -5.28%, O=C(Nc1ccccc1C(=O)OCc1cc(=O)n2ccsc2n1)c1cccc(F)c1 4.49%, COc1cccc(C2C(C(C)=O)=C(O)C(=O)N2CCc2c[nH]c3ccccc23)c1 (stereo not drawn) -10.1%, O=C(NN=C1CCCCCCC1)c1ccccn1 -7.46%, CC(=O)OC[C@@H]1O[C@H](C/C=N\OC[C@@H](O)[C@H]2O[C@H]3OC(C)(C)O[C@H]3[C@@H]2O)C=C[C@@H]1OC(C)=O 10.1% [at 15.3 µM], CC(=O)c1ccc(Nc2ccc(-c3ccccc3C)nn2)cc1 -16.4%, NNc1nc2c(-c3ccc(F)cc3)nnn2c2ccccc12 2.43%, O=C(CSc1nnc(-c2ccccc2Cl)o1)N1CCCC1 -8.01%, CSc1cccc(NC(=O)c2ccc3c(c2)c(C)c(C)n3Cc2ccc(F)cc2)c1 61.8%, Cc1ccc(C)c(C(=O)Nc2nc3ccccc3[nH]2)c1 -3.01%, N#CC1=C(N)SC(N)=C(C#N)C1CCc1ccccc1 -8.89%

Potency, inactive:
COc1ccc2c(c1)C(=O)N(CCc1ccc(S(=O)(=O)NC(=O)NC3CCCCC3)cc1)C(=O)C2(C)C

Potency, inconclusive:
Cc1cc(OC(=O)N2CCCCC2)cc(C)c1Cl 20 µM [inhibitor, partial curve], Cc1cc(SCC(=O)c2cccs2)n2nc(C)c(-c3ccccc3)c2n1 31.6 µM [inhibitor, partial curve], CN1C(=S)SC(/[N+]([O-])=C\c2cccs2)C1(C)C (stereo not drawn) 50.1 µM [inhibitor, single point], O=C(Nc1ccc2c(c1)CCC2)C1COc2ccccc2O1 (stereo not drawn) 35.5 µM [inhibitor, single point], O=C(O)CCC(=O)Nc1ccc(C(=O)OCC(=O)c2ccc(Cl)cc2Cl)cc1 25.1 µM [inhibitor, partial curve], COc1ccc(NC(=O)c2cc(-c3cccnc3)nc3c(C)c(C)ccc23)c(OC)c1 20 µM [inhibitor, partial curve], Cc1cc(C)c2c(=O)n(CC(=O)Nc3ccc(Br)c(C)c3)sc2n1 35.5 µM [inhibitor, partial curve], CC(C)(C)C1CCC(C(=O)Nc2cccnc2)CC1 (stereo not drawn) 35.5 µM [inhibitor, partial curve], Cc1onc(-c2ccccc2)c1C(=O)Nc1ccccc1C#N 15.8 µM [inhibitor, partial curve], O=C1COc2ccc(C(=O)CSc3nnc(-c4cccs4)n3Cc3ccccc3)cc2N1 11.2 µM [inhibitor, partial curve], O=C1Nc2ccc(F)cc2C12Nc1ccccc1-c1nnc(SCc3ccccc3Cl)nc1O2 (stereo not drawn) 8.91 µM [inhibitor, partial curve], O=C(/C=C/c1ccccc1[N+](=O)[O-])OCC(=O)c1ccccc1 14.1 µM [inhibitor, partial curve], O=C(Nc1ccc(O)c2c(=O)cc(-c3ccccc3Cl)oc12)c1ccc(Cl)c(Cl)c1 11.2 µM [inhibitor, partial curve], CCOc1nc(NC(=O)NS(=O)(=O)Oc2ccc(Cl)cc2)nc(-c2ccccc2)n1 39.8 µM [inhibitor, single point], COc1ccc(CCNC(=O)C(=O)NCC2OCCN2S(=O)(=O)c2ccc(C)cc2)cc1 (stereo not drawn) 28.2 µM [inhibitor, partial curve], Oc1ccc(N=Cc2c(O)ccc3ccccc23)cc1 50.1 µM [inhibitor, single point], CCOc1ccc(C(C)C)cc1S(=O)(=O)Nc1cccc(-c2ccc(N3CCOCC3)nn2)c1 3.55 µM [inhibitor, full curve], CN1/C(=C\C=C2/SC(=S)N(CC(=O)O)C2=O)C(C)(C)c2ccccc21 39.8 µM [inhibitor, partial curve], Cc1ccccc1N=C1NC(=O)/C(=C/c2cccn2C)S1 50.1 µM [inhibitor, single point], O=C(Nc1ccc(N2CCCCCC2)cc1)c1ccccc1Cl 5.62 µM [inhibitor, full curve, poor fit], Cc1oc(-c2ccccc2Cl)nc1CS(=O)(=O)CC(=O)NC1CCCC1 28.2 µM [inhibitor, partial curve], CC(C)(C)c1ccc(OCCSc2nc(-c3cccs3)nc3cc(=O)[nH]n23)cc1 17.8 µM [inhibitor, partial curve], CC(C)Oc1ccc2ccccc2c1C=O 14.1 µM [inhibitor, partial curve], Cc1nnc2sc(SCc3ccccc3Cl)nn2c1=O 22.4 µM [inhibitor, single point], CC1(C)Oc2ccc(NC(=O)C3COc4ccccc4O3)cc2O1 (stereo not drawn) 31.6 µM [inhibitor, partial curve], CCC(C)(c1ccc(C=O)s1)c1ccc(C=O)s1 15.8 µM [inhibitor, partial curve], CCc1cc(OCCN2C(=O)NC(C)(C)C2=O)ccc1Cl 39.8 µM [inhibitor, partial curve], Cc1ccc(NC(=O)C2C3CC4OC(=O)C2C4C3)cc1Cl (stereo not drawn) 50.1 µM [inhibitor, single point], Clc1cccc(Cl)c1COn1nnc2ccccc21 31.6 µM [inhibitor, partial curve], O=C(c1ccc2c(=O)n3c(nc2c1)CCCCC3)N1CCN(C(c2ccccc2)c2ccccc2)CC1 17.8 µM [inhibitor, partial curve], C=CCc1ccc(O)c(-c2cc(CC=C)ccc2O)c1 25.1 µM [inhibitor, partial curve] and 15.8 µM [inhibitor, partial curve] and 17.8 µM [inhibitor, single point], COC(=O)C(C)N1C(=O)S/C(=C/c2cc(C)n(C(C)C)c2C)C1=O (stereo not drawn) 31.6 µM [inhibitor, partial curve], COC(=O)c1ccc(OCC(=O)NC2CCCCCC2)cc1 31.6 µM [inhibitor, partial curve], Cc1cccc(N2C(=O)CSC23CCCCC3)c1 50.1 µM [inhibitor, single point], CCn1c(CNc2ccc(F)cc2)nnc1SCC(=O)Nc1ccc(OC)cc1OC 35.5 µM [inhibitor, single point], C=CCn1c(SCC(=O)c2ccc(Br)cc2)nnc1C(CC(C)C)NC(=O)c1cccs1 (stereo not drawn) 10 µM [inhibitor, full curve, poor fit], O=C1c2cccc3cc(Br)cc(c23)C(=O)N1Nc1ccccc1 8.91 µM [inhibitor, partial curve], COc1cccc(NC(=O)CSc2ccccn2)c1 28.2 µM [inhibitor, partial curve], CCCCCNCC(=O)Nc1cccc(C(=O)Nc2cccc(C(F)(F)F)c2)c1 17.8 µM [inhibitor, partial curve], COc1ccc(N2C(=O)C3C4C=CC(C4)C3C2=O)c([N+](=O)[O-])c1 (stereo not drawn) 20 µM [inhibitor, partial curve], CC12C(=O)N(Cc3ccccc3)C(=O)C1C1C=CC2C1 (stereo not drawn) 14.1 µM [inhibitor, partial curve], O=C(CCC1N=C2c3ccccc3N=C(SCc3cccc(Cl)c3)N2C1=O)NCc1cccs1 (stereo not drawn) 7.08 µM [inhibitor, full curve, poor fit], Cc1ccc2cccc(NC(=S)NC(=O)c3c(Br)cnn3C)c2n1 0.794 µM [inhibitor, full curve, poor fit], N#C/C(=C\c1ccc[nH]1)C(=O)NC1CC1 31.6 µM [inhibitor, single point], c1ccc2c(c1)CCc1snnc1-2 35.5 µM [inhibitor, single point], Cc1ccc(C(=O)NCC(=O)OCC(=O)NC2CCCCCCC2)cc1 22.4 µM [inhibitor, partial curve], CCOC(=O)N1CCN(C2=C(NS(=O)(=O)c3ccccc3)C(=O)c3ccccc3C2=O)CC1 39.8 µM [inhibitor, single point]
